Assay in all cases: 33P-ATP filter-binding kinase assay
One experiment addresses PIM1 (Homo sapiens, UniProt P11309). The settings on record: read-out: % Activity (10 μM HS38).
For a further experiment, the target named is PIM2 (Homo sapiens, UniProt Q9P1W9).
Another experiment deals with smMLCK (Homo sapiens, UniProt Q15746). The settings on record: mean ± S.D., n = 2.
Sequence of UniProt Q15746 (Q15746 whole entry): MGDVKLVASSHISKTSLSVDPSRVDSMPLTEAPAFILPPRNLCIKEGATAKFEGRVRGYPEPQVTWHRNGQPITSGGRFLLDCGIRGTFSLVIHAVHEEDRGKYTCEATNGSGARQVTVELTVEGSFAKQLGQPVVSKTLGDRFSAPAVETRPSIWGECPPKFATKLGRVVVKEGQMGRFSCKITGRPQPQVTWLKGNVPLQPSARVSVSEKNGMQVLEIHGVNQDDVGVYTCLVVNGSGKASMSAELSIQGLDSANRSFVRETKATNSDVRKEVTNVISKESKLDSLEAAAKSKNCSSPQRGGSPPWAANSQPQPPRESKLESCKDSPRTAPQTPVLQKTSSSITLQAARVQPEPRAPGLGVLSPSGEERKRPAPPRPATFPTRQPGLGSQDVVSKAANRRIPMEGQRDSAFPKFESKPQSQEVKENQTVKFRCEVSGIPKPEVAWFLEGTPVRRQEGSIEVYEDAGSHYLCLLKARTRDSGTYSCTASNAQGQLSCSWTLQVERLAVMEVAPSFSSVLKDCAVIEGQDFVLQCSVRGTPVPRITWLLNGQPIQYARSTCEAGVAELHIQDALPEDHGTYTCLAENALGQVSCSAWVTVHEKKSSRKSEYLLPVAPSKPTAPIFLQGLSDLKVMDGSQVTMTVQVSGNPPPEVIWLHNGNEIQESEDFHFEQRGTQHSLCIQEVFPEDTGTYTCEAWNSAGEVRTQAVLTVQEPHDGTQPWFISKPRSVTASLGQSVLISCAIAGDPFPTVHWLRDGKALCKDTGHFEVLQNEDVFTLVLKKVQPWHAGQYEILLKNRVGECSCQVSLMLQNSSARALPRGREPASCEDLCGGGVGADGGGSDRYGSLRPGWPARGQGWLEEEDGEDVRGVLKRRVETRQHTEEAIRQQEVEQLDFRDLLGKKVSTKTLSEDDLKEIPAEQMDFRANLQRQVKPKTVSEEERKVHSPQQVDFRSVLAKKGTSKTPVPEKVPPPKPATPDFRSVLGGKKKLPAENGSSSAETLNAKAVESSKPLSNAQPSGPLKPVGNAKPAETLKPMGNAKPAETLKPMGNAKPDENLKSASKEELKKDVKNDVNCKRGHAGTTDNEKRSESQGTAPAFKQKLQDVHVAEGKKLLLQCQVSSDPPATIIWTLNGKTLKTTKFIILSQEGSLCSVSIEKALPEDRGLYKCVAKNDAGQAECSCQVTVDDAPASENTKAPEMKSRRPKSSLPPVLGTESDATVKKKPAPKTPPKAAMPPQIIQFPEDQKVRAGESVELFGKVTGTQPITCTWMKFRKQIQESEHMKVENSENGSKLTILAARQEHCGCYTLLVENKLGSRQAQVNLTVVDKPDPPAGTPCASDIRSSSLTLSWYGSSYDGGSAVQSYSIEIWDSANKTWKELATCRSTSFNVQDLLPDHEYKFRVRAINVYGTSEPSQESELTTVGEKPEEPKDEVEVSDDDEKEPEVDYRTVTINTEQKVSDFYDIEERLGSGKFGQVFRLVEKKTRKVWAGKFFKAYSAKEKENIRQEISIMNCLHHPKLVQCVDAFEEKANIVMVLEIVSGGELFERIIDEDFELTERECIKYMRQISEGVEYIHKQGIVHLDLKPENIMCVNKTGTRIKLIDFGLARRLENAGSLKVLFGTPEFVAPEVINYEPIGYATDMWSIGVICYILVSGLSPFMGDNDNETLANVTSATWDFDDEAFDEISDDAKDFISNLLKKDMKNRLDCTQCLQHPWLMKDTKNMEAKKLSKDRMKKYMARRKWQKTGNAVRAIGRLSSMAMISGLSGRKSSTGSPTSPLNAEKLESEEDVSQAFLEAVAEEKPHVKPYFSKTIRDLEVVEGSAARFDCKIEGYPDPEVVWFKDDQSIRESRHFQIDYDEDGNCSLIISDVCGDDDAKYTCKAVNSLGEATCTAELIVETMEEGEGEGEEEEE

Sequence of UniProt Q9P1W9 (Q9P1W9 whole entry): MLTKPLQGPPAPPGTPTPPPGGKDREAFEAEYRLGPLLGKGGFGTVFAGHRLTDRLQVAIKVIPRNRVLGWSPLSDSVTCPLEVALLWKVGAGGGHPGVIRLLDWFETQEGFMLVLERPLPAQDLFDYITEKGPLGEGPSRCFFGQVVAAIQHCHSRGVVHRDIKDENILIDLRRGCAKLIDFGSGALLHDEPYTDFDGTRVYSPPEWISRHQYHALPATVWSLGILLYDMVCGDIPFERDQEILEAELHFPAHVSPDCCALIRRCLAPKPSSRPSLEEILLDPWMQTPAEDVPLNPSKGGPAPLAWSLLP
Sequence of UniProt P11309 (P11309 whole entry): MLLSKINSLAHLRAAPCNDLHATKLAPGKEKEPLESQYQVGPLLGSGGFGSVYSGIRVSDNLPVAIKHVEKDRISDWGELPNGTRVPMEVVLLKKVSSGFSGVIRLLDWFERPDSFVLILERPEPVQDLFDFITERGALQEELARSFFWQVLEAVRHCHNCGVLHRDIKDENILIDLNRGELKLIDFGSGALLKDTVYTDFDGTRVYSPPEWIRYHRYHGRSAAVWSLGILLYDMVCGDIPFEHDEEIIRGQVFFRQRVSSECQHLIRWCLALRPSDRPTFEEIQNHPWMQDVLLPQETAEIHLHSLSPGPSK

With `CC(Sc1nc2c(cnn2-c2cccc(Cl)c2)c(=O)[nH]1)C(N)=O` (stereo not shown) [HS38], the activity at 10 µM is 23% at PIM1 and 64% on PIM2 (read-out: % Activity (10 μM HS38)). Moreover, the IC50 (usually the concentration at which inhibition is half-maximal) on PIM2 (mean ± S.D., n = 2) came out at 18 ± 8 µM; at smMLCK, 19 ± 3 µM.
